PubChem BioAssay AID485273 (Sanford-Burnham Center for Chemical Genomics, 2010)
Screen size: about 330,000 compounds; about 1,500 (0.45%) were called active. Inconclusive means that the source gave no clear call. Such entries were picked first, then a sample of the others. Cut-off read from the data, not from the text of the source: active = inhibition above about 45% (passing the limit was not always enough); inconclusive = no clear call, values can overlap the other calls.

target: Ubiquitin-conjugating enzyme E2 N (Homo sapiens) (UniProt P61088); experiment: UBC13 polyubiquitin chain formation inhibitors, primary screen, biochemical, TR-FRET, uHTS (AID 485273); conditions: at 20 µM, hits give high values
Chain of UniProt P61088 (P61088 whole entry, looked up): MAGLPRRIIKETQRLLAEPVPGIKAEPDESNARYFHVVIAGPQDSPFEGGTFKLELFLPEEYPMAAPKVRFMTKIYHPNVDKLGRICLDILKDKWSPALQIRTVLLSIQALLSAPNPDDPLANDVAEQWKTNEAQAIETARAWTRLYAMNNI

| SMILES | inhibition |
| --- | --- |
| O=c1[nH]c(CN2CCN(c3ncccn3)CC2)nc2c(Br)cc(Br)cc12 | inconclusive: 97.8% |
| CCn1c(=O)c(C(=O)NCc2ccc(F)cc2)c(O)c2ccccc21 | inconclusive: 45.6% |
| NC(=O)CCCn1c(C(=O)c2cc(Cl)c(N)c(Cl)c2)c2ccc([N+](=O)[O-])cc2[n+]1[O-] | active: 82.4% |
| Cc1ccc(NC(=S)NNC(=O)c2nnn(-c3ccccc3)c2C)cc1 | active: 45% |
| COc1cc(C(=O)Nc2cccnc2)cc(OC)c1OC | inconclusive: 87.5% |
| CCCn1c(SCC(=O)NNC(=O)c2ccc(OC)cc2)nnc1C(C)C | inactive: 0.7% |
| COc1cc(OC)cc(C(=O)Nc2ccc3c(c2)OCCO3)c1 | inactive: 12% |
| COc1ccc2c(-c3ccc(S(N)(=O)=O)cc3)c(-c3ccc(S(C)(=O)=O)cc3)sc2c1 | inconclusive: 89.1% |
| COc1cc(S(=O)(=O)Nc2ccc(C)cc2)ccc1N=Cc1c(C)[nH]n(-c2ccc(C)cc2)c1=O | inactive: 2.5% |
| COc1ccc2c(-c3ccccc3)cc(SCC(=O)NC3CCS(=O)(=O)C3)nc2c1 (configuration not stated) | inconclusive: 50.5% |
| CC(C)C[C@@H](CO)N1CCN(C)CCC1=O | inconclusive: 80.9% |
| O=C1c2ccccc2CCc2ccc(Br)cc21 | inconclusive: 50.3% |
| Cc1cc(SCC(=O)Nc2cccnc2Cl)nc2ccccc12 | inconclusive: 60% |
| O=C(CNc1ccc2ccccc2c1)N/N=C/c1ccc(C(=O)O)cc1 | inactive: 1.3% |
| CCN(CC)CCOc1ccc2c(c1)C(=NNC(=O)c1ccccn1)c1cc(OCCN(CC)CC)ccc1-2 | inconclusive: 75.4% |
| CCCCn1nc2cc(C(=O)NCCCCc3ccccc3)ccc2c1OCC | inconclusive: 103% |
| CCOc1ccc(NC(=O)NNC(=O)c2ccc3ccccc3c2O)cc1 | active: 49% |
| COc1cc(C=O)c(Br)cc1OCc1ccc(C)cc1 | inconclusive: 64.9% |
| CCc1ccc(C2C(C#N)=C(N)SC(N)=C2C#N)cc1 | inconclusive: 49.1% |
| NC(N)=N/N=C/c1ccc(OCc2ccccc2Cl)cc1 | active: 74.5% |
| C#CCOCCOCCOCCNc1nc(N2CCN(C(=O)[C@H](CCCCN)n3cc([C@@H](N)[C@H](C)CC)nn3)CC2)nc(N2CCN(C(=O)[C@H](CCC(=O)O)n3cc([C@@H](N)CCCCN)nn3)CC2)n1 | active: 101% |
| Cc1cccc(N2CCC(N3CCN(C4CCCCC4)C(CCO)C3)CC2)c1C (configuration not stated) | inactive: 7.9% |

| SMILES | inhibition |
| --- | --- |
| CCOC(=O)c1c(SC)[nH]c2c(Cl)cccc2c1=O | inconclusive: 56.3% |
| Cc1nc(N2CCN(c3ccccn3)CC2)c2c(C)c(C(=O)Nc3c(F)cc(F)cc3Br)sc2n1 | inconclusive: 81% |
| COc1ccc(-n2c(-c3cccc(OC)c3)nc(=S)c3c2CCCC3)cc1 | inconclusive: 71.3% |
| CCOc1ccc(-c2nnc3ccc(SC(C)C)nn23)cc1 | inconclusive: 60.8% |
| CC(C)n1c(NCc2cc(Cl)ccc2O)nc2ccccc21 | active: 67.2% |
| COc1ccc(CC(=O)Nc2ccc3nc(C)sc3c2)cc1OC | inconclusive: 85.3% |
| CC(=O)Nc1ccc(NC(=O)c2ccc(NC(=O)c3ccccc3)cc2)cc1 | inactive: -2.9% |
| Cc1ccc(/C=C(\NC(=O)c2ccccc2)C(=O)OCc2ccccc2)cc1 | inconclusive: 88.9% |
| Nc1c(C(=O)NCc2ccccc2)sc2nc(N3CCOCC3)c3c(c12)CCCC3 | inconclusive: 88% |
| CCC1CCCCN1CCCNC(=O)C1CCN(c2ncnc3c2nc2n3CCCCC2)CC1 (configuration not stated) | active: 52.9% |
| CCOC(=O)N1CCc2c(sc3[nH]c(=S)[nH]c(=S)c23)C1 | inconclusive: 57.2% |
| Cc1ccnc(NC(=O)c2cc(-c3ccc(Cl)s3)nc3ccccc23)c1 | inconclusive: 75.9% |
| Cc1nc(-c2ccccc2)sc1-c1nc(-c2ccncc2)ncc1S(=O)(=O)c1ccccc1 | inconclusive: 59.2% |
| COc1cc(C2C3=C(CC(C)(C)CC3=O)NC3=C2C(=O)c2ccccc23)ccc1O (configuration not stated) | inconclusive: 65.4% |
| COc1ccc(CNC(=O)c2c(O)c3cccc4c3n(c2=O)CCC4)cc1OC | inconclusive: 56.8% |
| O=c1c2oc3ccccc3c2[nH]c(=S)n1-c1ccc(F)cc1 | inconclusive: 89.7% |
| COc1cccc2sc3cc(C#Cc4ccccn4)ccc3c(=O)c12 | inconclusive: 56.5% |
| CC(=O)NC(CSc1cc(C)nc2ccc(Br)cc12)C(=O)O (configuration not stated) | inconclusive: 62% |
| Cc1cc(C)c(S(=O)(=O)c2ccccc2C)c(Cl)n1 | inactive: -8.5% |
| O=c1[nH]c2ccccc2c(O)c1-c1ccccc1 | inactive: 6.2% |
| COC(=O)c1ccccc1NC(=O)c1cccc(NC(=O)C(C)C)c1 | inconclusive: 86.5% |
| CN(C)S(=O)(=O)c1cccc(C(=O)N=C2N=C3C=CC(Cl)=CN3Cc3ccccc32)c1 | inconclusive: 52.7% |

| SMILES | inhibition |
| --- | --- |
| COc1cc2c3nnc(-c4ccc(F)cc4)c-3cn(Cc3ccc(C)cc3)c2cc1OC | active: 48.7% |
| COc1cc(OC)cc(-c2sc3ccc(OC)cc3c2C#CC2(N)CCCCC2)c1 | active: 83.8% |
| CN1c2ccccc2C(C)(C)C12CC(c1cccc(S(=O)(=O)N3CCCC3)c1)=NO2 (configuration not stated) | inconclusive: 79.2% |
| CC(C)C(C(=O)O)N1C(=O)/C(=C/C=C/c2ccco2)SC1=S (configuration not stated) | inconclusive: 49.7% |
| CCc1cc2c(=O)n(-c3ccccc3)c(=S)[nH]c2s1 | active: 47.8% |
| C[C@@]12C(=O)Nc3ccc(F)cc3C(=O)N1[C@H]1c3cc(Br)ccc3OC[C@@H]1[C@@H]2c1ccccc1 | inconclusive: 52.4% |
| CC(=O)N1CCOc2ccc(S(=O)(=O)NCc3ccccc3Cl)cc21 | inconclusive: 75.7% |
| O=C(Cc1nnc(NC(=O)Nc2ccccc2)s1)Nc1ccccc1 | inactive: -1% |
| O=C(NNC(=O)c1nn(-c2ccc(F)cc2)ccc1=O)c1ccccc1Cl | active: 80.9% |
| CC(C)c1nnc(NC(=O)CCC(=O)Nc2ccc(Cl)cc2)s1 | inconclusive: 67.4% |
| Cc1ccc(NC(=S)C2=C(O)c3ccccc3N(C)S2(=O)=O)cc1 | inactive: -0.5% |
| COc1ccc(Cl)cc1Nc1ncnc2sc(C)c(S(=O)(=O)N3CCC(C)CC3)c12 | inconclusive: 57.8% |
| Cc1ccccc1OCC(O)CN1CCN(CCN2C(=O)c3cccc4cccc(c34)C2=O)CC1 (configuration not stated) | active: 50.4% |
| COCCNC(=O)C1CC(c2cccc([N+](=O)[O-])c2)=NO1 (configuration not stated) | inconclusive: 102% |
| O=c1c2cc(Br)ccc2[nH]c(=S)n1Cc1cccnc1 | inconclusive: 81.7% |
| CC(C)CC(C(=O)NC(C)(C)C)N(Cc1ccccc1Cl)C(=O)c1snc(C(N)=O)c1N (configuration not stated) | active: 71% |
| COc1ccc(-c2sc3cc4c(cc3c2-c2ccc(OCCN3CCOCC3)cc2)OCO4)cc1 | inconclusive: 58.8% |
| CCN1/C(=C/c2ccc3cc(C)ccc3[n+]2CC)Sc2ccc3sccc3c21 | inconclusive: 71% |
| COc1ccc(N2C(=NC(=O)c3ccc(Br)cc3)SC3CS(=O)(=O)CC32)cc1 (configuration not stated) | inconclusive: 46.9% |
| CC(=O)c1cn(S(=O)(=O)c2ccccc2)c2ccccc12 | active: 90.7% |
| O=C(CCC(=O)Nc1ccc(F)cc1)N/N=C/c1ccccc1O | inactive: -11.3% |
| CN(C)CCCNC(=S)NCC(c1ccc(Cl)cc1Cl)c1c[nH]c2ccccc12 (configuration not stated) | active: 60.1% |

| SMILES | inhibition |
| --- | --- |
| Cc1onc(-c2ccccc2)c1C(=O)NNC(=S)NC(=O)/C=C/c1cccs1 | inactive: -23.3% |
| CCOC(=O)[C@@H]1[C@H]2COc3cc(OC)ccc3[C@H]2N2C(=O)N(c3ccc(F)cc3)C(=O)[C@]12C | active: 53.6% |
| Cc1ccc2c(c1)C(=O)N1[C@H]3c4cc(Br)ccc4OC[C@@H]3[C@H](c3ccccc3)[C@]1(C)C(=O)N2 | inconclusive: 60.1% |
| CCCN1C(=O)/C(=C/c2cc(C)n(C)c2C)SC1=Nc1ccc(OC)cc1 | inactive: -14.4% |
| CCOc1ccc(-c2nnc3ccc(SC)nn23)cc1 | inconclusive: 75.4% |
| O=c1c2oc3ccccc3c2[nH]c(=S)n1-c1ccccc1 | inconclusive: 93.5% |
| O=c1cc(NCCCO)c2ccccc2o1 | inactive: -3% |
| COc1ccc(-c2sc3ccccc3c2-c2ccc(OCCN(C)C)cc2)cc1 | active: 86.6% |
| CCC1(C)Cc2ccccc2-c2[nH]c(=S)[nH]c(=O)c21 (configuration not stated) | inconclusive: 63.9% |
| CCOc1ccc2nc(N(CCCN(C)C)C(=O)c3ccc(S(=O)(=O)N4CCc5ccccc5C4)cc3)sc2c1 | active: 84.4% |
| CCn1c(=O)c2cc(C(=O)NCCN(C)C)sc2c2ccccc21 | active: 46% |
| Cc1nc(NC(=O)CSc2cc(C)c3ccccc3n2)c(Cl)cc1Cl | inconclusive: 63.5% |
| N#CC(=C=[N-])C1=C(C#N)C(c2ccccc2F)C([n+]2ccccc2)C(O)(C2CC2)N1 (configuration not stated) | inconclusive: 85.7% |
| COC(=O)c1cc(Br)c(N)cc1OC | inactive: 11.9% |
| CN(C)S(=O)(=O)c1cccc(NC(=O)CSc2ncnc3ccccc23)c1 | inconclusive: 47.6% |
| COc1cccc(NC(=S)Nc2cc(C)cc(C)n2)c1 | inconclusive: 74.2% |
| O=C(CCSc1nc(-c2ccc3c(c2)OCO3)cc(C(F)(F)F)n1)NCc1ccccc1 | inconclusive: 60% |
| O=C(c1ccc2c(c1)[nH]c(=S)n1c3ccccc3nc21)N1CCN(c2cccc(Cl)c2)CC1 | inconclusive: 61.7% |
| Cc1cc(SCC(=O)NC2CCCCC2)nc2ccccc12 | inconclusive: 79.8% |
| Cc1cccc(CSCCNC(=S)Nc2ccccc2)c1 | active: 47.6% |
| CCC(C)/C(C)=N/Nc1ccc(S(N)(=O)=O)cc1[N+](=O)[O-] (configuration not stated) | inactive: -55.3% |
